This is one part of the list. The list includes weakly bound sequences.

The target in the test is T1, MBP-FoxP3dN (UniProt Q99JB6).
T1 sequence: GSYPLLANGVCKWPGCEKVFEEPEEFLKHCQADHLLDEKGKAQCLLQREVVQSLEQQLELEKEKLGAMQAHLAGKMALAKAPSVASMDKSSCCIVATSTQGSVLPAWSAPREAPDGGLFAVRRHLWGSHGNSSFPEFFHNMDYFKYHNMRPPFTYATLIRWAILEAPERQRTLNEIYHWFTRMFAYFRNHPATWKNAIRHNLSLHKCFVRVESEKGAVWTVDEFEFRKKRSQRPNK
The experiment in a line: PD-seq (MBP pull-down with sequencing). To be noted: 20 mM Tris-HCl pH 7.5, 100 mM NaCl, 1.5 mM MgCl2, 0.4 uM protein, 0.1 uM dsDNA library, 30 min, room temperature, amylose pull-down; high values mean tight binding; double strand, one strand shown.
Turning to “GATGATTGTTCTCCCAGCTGATGAATTGGATGTTTCGAGTAAACAAATTTTCCTAATCTTTCTGTTCAAGCGCCATCTAC”, the binding signal (RPM ratio (pull-down/input)) is 1.75.
To “GATGATTGTTCTCCCAGCTGATGAATTCGTCGGCTCGAGTAAACAAATTTTCCTAATCTTTCTGTTCAAGCGCCATCTAC” belongs 0.333; to “GATGATTGTTCTCCCAGCTGATGAATTAGAGGCTTCGAGTAAACAAATTTTCCTAATCTTTCTGTTCAAGCGCCATCTAC”, 0.788.
To “GATGATTGTTCTCCCAGCTGATGAATTAGTCGTGTCGAGTAAACAAATTTTCCTAATCTTTCTGTTCAAGCGCCATCTAC” belongs 1.61.
For the sequence “GATGATTGTTCTCCCAGCTGATGAATTAAAGTGTTCGAGTAAACAAATTTTCCTAATCTTTCTGTTCAAGCGCCATCTAC”, the binding signal (RPM ratio (pull-down/input)) amounted to 0.592.
To “GATGATTGTTCTCCCAGCTGATGAATTTACCCCATCGAGTAAACAAATTTTCCTAATCTTTCTGTTCAAGCGCCATCTAC” belongs 0.492; to “GATGATTGTTCTCCCAGCTGATGAATTGCTCAAGTCGAGTAAACAAATTTTCCTAATCTTTCTGTTCAAGCGCCATCTAC”, 0.371; to “GATGATTGTTCTCCCAGCTGATGAATTTGCGGAATCGAGTAAACAAATTTTCCTAATCTTTCTGTTCAAGCGCCATCTAC”, 0.363.
The same measure for “GATGATTGTTCTCCCAGCTGATGAATTGAGTGGCTCGAGTAAACAAATTTTCCTAATCTTTCTGTTCAAGCGCCATCTAC”: 0.573; for “GATGATTGTTCTCCCAGCTGATGAATTAGACCCCTCGAGTAAACAAATTTTCCTAATCTTTCTGTTCAAGCGCCATCTAC”: 0.31; for “GATGATTGTTCTCCCAGCTGATGAATTGACCTGGTCGAGTAAACAAATTTTCCTAATCTTTCTGTTCAAGCGCCATCTAC”: 0.198.
As to “GATGATTGTTCTCCCAGCTGATGAATTTAATAGATCGAGTAAACAAATTTTCCTAATCTTTCTGTTCAAGCGCCATCTAC”, the binding signal (RPM ratio (pull-down/input)) was found to be 0.301.
To “GATGATTGTTCTCCCAGCTGATGAATTCGGGCCTTCGAGTAAACAAATTTTCCTAATCTTTCTGTTCAAGCGCCATCTAC” belongs 1.47; to “GATGATTGTTCTCCCAGCTGATGAATTTCTGCTCTCGAGTAAACAAATTTTCCTAATCTTTCTGTTCAAGCGCCATCTAC”, 0.277; to “GATGATTGTTCTCCCAGCTGATGAATTATTAATATCGAGTAAACAAATTTTCCTAATCTTTCTGTTCAAGCGCCATCTAC”, 0.553.
With “GATGATTGTTCTCCCAGCTGATGAATTGAACGTATCGAGTAAACAAATTTTCCTAATCTTTCTGTTCAAGCGCCATCTAC”, the binding signal (RPM ratio (pull-down/input)) was found to be 0.5.
To “GATGATTGTTCTCCCAGCTGATGAATTTGTCCGCTCGAGTAAACAAATTTTCCTAATCTTTCTGTTCAAGCGCCATCTAC” belongs 1.34; to “GATGATTGTTCTCCCAGCTGATGAATTAGCGGTGTCGAGTAAACAAATTTTCCTAATCTTTCTGTTCAAGCGCCATCTAC”, 0.745; to “GATGATTGTTCTCCCAGCTGATGAATTAAAAGATTCGAGTAAACAAATTTTCCTAATCTTTCTGTTCAAGCGCCATCTAC”, 0.243.
As to “GATGATTGTTCTCCCAGCTGATGAATTGAGGGAATCGAGTAAACAAATTTTCCTAATCTTTCTGTTCAAGCGCCATCTAC”, the binding signal (RPM ratio (pull-down/input)) amounted to 0.284.
For “GATGATTGTTCTCCCAGCTGATGAATTATGCGATTCGAGTAAACAAATTTTCCTAATCTTTCTGTTCAAGCGCCATCTAC”, the binding signal (RPM ratio (pull-down/input)) is 2.32.
For “GATGATTGTTCTCCCAGCTGATGAATTAGACTGGTCGAGTAAACAAATTTTCCTAATCTTTCTGTTCAAGCGCCATCTAC”, the binding signal (RPM ratio (pull-down/input)) came to 0.336.
To “GATGATTGTTCTCCCAGCTGATGAATTGGCTAGCTCGAGTAAACAAATTTTCCTAATCTTTCTGTTCAAGCGCCATCTAC” belongs 0.375; to “GATGATTGTTCTCCCAGCTGATGAATTAGTCGACTCGAGTAAACAAATTTTCCTAATCTTTCTGTTCAAGCGCCATCTAC”, 0.453; to “GATGATTGTTCTCCCAGCTGATGAATTTCCCCCGTCGAGTAAACAAATTTTCCTAATCTTTCTGTTCAAGCGCCATCTAC”, 0.185.
Regarding “GATGATTGTTCTCCCAGCTGATGAATTGATAAGTTCGAGTAAACAAATTTTCCTAATCTTTCTGTTCAAGCGCCATCTAC”, the binding signal (RPM ratio (pull-down/input)) worked out at 0.36.
To “GATGATTGTTCTCCCAGCTGATGAATTCTGCTAATCGAGTAAACAAATTTTCCTAATCTTTCTGTTCAAGCGCCATCTAC” belongs 0.401; to “GATGATTGTTCTCCCAGCTGATGAATTCCATTTTTCGAGTAAACAAATTTTCCTAATCTTTCTGTTCAAGCGCCATCTAC”, 0.651.
The same measure for “GATGATTGTTCTCCCAGCTGATGAATTACAGTCTTCGAGTAAACAAATTTTCCTAATCTTTCTGTTCAAGCGCCATCTAC”: 0.547; for “GATGATTGTTCTCCCAGCTGATGAATTTAGGTCCTCGAGTAAACAAATTTTCCTAATCTTTCTGTTCAAGCGCCATCTAC”: 0.64; for “GATGATTGTTCTCCCAGCTGATGAATTCGGAGGCTCGAGTAAACAAATTTTCCTAATCTTTCTGTTCAAGCGCCATCTAC”: 0.399.

Source of the values: publication PMC12820563.
